This is one part of the list.
Test system: HSkMC (human skeletal muscle cells)
Experiment: cytotoxicity call (relative viability < 0.9)
Settings: 10 µM

SMILES | cytotoxicity call
C[C@@H]1CN([C@@H](C)CO)C(=O)c2cccc(NC(=O)Nc3ccc(F)cc3)c2O[C@H]1CN(C)C(=O)Nc1cccc2ccccc12 | inactive
C[C@H](CO)N1C[C@H](C)[C@@H](CN(C)Cc2ccc(C(F)(F)F)cc2)Oc2ccc(NC(=O)Cn3cnnn3)cc2C1=O | inactive
O=C(C[C@H]1C[C@H]2c3cc(NC(=O)Cc4ccncc4)ccc3O[C@H]2[C@@H](CO)O1)NCCc1ccccc1 | inactive
CCCC(=O)Nc1ccc2c(c1)C(=O)N(C)[C@@H]1CC[C@@H](CC(=O)NCCN3CCCCC3)O[C@@H]1CO2 | inactive
O=C(NCC[C@H]1CC[C@@H](NS(=O)(=O)c2cccc(F)c2)[C@@H](CO)O1)C1CC1 | inactive
Cc1ccc(S(=O)(=O)N(C)C[C@@H]2Oc3ccc(NC(=O)Nc4cccc5ccccc45)cc3C(=O)N([C@@H](C)CO)C[C@H]2C)cc1 | inactive
CC(C)NC(=O)N(C)C[C@@H]1Oc2ccc(NS(=O)(=O)c3cccs3)cc2C(=O)N([C@@H](C)CO)C[C@H]1C | inactive
Cc1noc(C)c1S(=O)(=O)N(C)C[C@H]1Oc2ccc(N(C)C)cc2CC(=O)N([C@@H](C)CO)C[C@@H]1C | inactive
COCOc1ccc2cc(Br)ccc2c1-c1c(OCOC)ccc2cc(Br)ccc12 | active
C[C@H](CO)N1C[C@H](C)[C@H](CN(C)C(=O)Nc2ccc(C(F)(F)F)cc2)Oc2c(NC(=O)C3CCCCC3)cccc2C1=O | inactive
Cc1noc(C)c1S(=O)(=O)N(C)C[C@H]1Oc2ccc(NS(C)(=O)=O)cc2CC(=O)N([C@H](C)CO)C[C@@H]1C | inactive

Test system: HepG2
Experiment: cytotoxicity call (relative viability < 0.9)
Settings: 10 µM

SMILES | cytotoxicity call
COc1ccc(CNC(=O)C[C@H]2C[C@@H]3c4cc(NC(=O)NC5CCCC5)ccc4O[C@@H]3[C@@H](CO)O2)cc1 | inactive
C[C@H](CO)N1C[C@H](C)[C@@H](CN(C)S(=O)(=O)c2ccccc2C#N)OCc2cnnn2CCCC1=O | inactive
C[C@@H]1CCCCO[C@H](CN(C)Cc2ccc(C(=O)O)cc2)[C@@H](C)CN([C@H](C)CO)C(=O)c2cc(NS(=O)(=O)c3ccc(F)cc3)ccc2O1 | inactive
COc1ccc(S(=O)(=O)Nc2cccc3c2O[C@H](CN(C)Cc2ccc(Cl)c(Cl)c2)[C@@H](C)CN([C@H](C)CO)C3=O)cc1 | inactive
C[C@@H]1CN([C@H](C)CO)C(=O)c2cc(NC(=O)Nc3ccc4c(c3)OCO4)ccc2O[C@@H](C)CCCCO[C@H]1CN(C)Cc1ccccc1 | inactive
O=C(C[C@H]1CC[C@@H](NC(=O)CN2CCOCC2)[C@@H](CO)O1)NCCc1ccccc1 | inactive
C[C@@H]1CN([C@@H](C)CO)C(=O)c2cc(C3=CCCCC3)cnc2O[C@@H]1CN(C)S(=O)(=O)c1cn(C)cn1 | inactive
C[C@H]1CN([C@@H](C)CO)C(=O)c2cccc(NC(=O)c3ccc(-c4nccs4)cc3)c2O[C@H]1CN(C)Cc1ccc(C(F)(F)F)cc1 | inactive
O=C(O)C=Cc1ccc(O)c(O)c1 | inactive
C[C@H](CO)N1C[C@H](C)[C@H](CN(C)S(=O)(=O)c2ccccc2)Oc2ccc(NC(=O)C3CC3)cc2CC1=O | inactive
C[C@H](CO)N1C[C@H](C)[C@@H](CN(C)Cc2ccc(Cl)c(Cl)c2)Oc2ccc(NC(=O)Cn3cnnn3)cc2C1=O | inactive
COCCNC(=O)C[C@@H]1CC[C@@H]2[C@H](COC[C@H](O)CN2C(=O)Nc2ccc3c(c2)OCO3)O1 | inactive
O=C(Cn1cc(COc2ccc3ccccc3c2)nn1)NS(=O)(=O)c1ccccc1OC(F)(F)F | inactive
Cc1noc(C)c1NC(=O)Nc1ccc2c(c1)C(=O)N([C@@H](C)CO)C[C@H](C)[C@H](CN(C)C(=O)Nc1ccc(F)cc1)OCCCC[C@H](C)O2 | inactive
C[C@H](CO)N1C[C@H](C)[C@H](CN(C)C(=O)CCC(F)(F)F)OCCCC[C@H](C)Oc2ccc(NS(=O)(=O)c3ccccc3)cc2C1=O | inactive
C[C@@H]1CN([C@H](C)CO)C(=O)Cc2cc(NC(=O)CCC(F)(F)F)ccc2O[C@@H]1CN(C)C(=O)Nc1cccc2ccccc12 | inactive
C[C@@H]1CN([C@H](C)CO)C(=O)Cc2cc(NC(=O)C3CC3)ccc2O[C@@H]1CN(C)C(=O)NC1CCCCC1 | inactive
C[C@@H]1CCCCO[C@@H](CN(C)Cc2ccccc2)[C@@H](C)CN([C@@H](C)CO)C(=O)c2cc(NC(=O)CCC(F)(F)F)ccc2O1 | inactive
COc1ccc(S(=O)(=O)N(C)C[C@@H]2Oc3c(NS(=O)(=O)c4ccc(F)cc4)cccc3C(=O)N([C@@H](C)CO)C[C@@H]2C)cc1 | inactive
Cc1noc(C)c1S(=O)(=O)N(C)C[C@@H]1Oc2ccc(NC(=O)NC(C)C)cc2CC(=O)N([C@@H](C)CO)C[C@@H]1C | inactive

SMILES | cytotoxicity call
C[C@@H]1CN([C@@H](C)CO)C(=O)Cc2cc(NC(=O)C3CCCCC3)ccc2O[C@@H]1CN(C)S(=O)(=O)c1cn(C)cn1 | inactive
Cc1noc(C)c1NC(=O)Nc1cccc2c1O[C@@H](CN(C)Cc1ccc(Oc3ccccc3)cc1)[C@@H](C)CN([C@@H](C)CO)C2=O | inactive
Cc1noc(C)c1NC(=O)N(C)C[C@@H]1Oc2c(NC(=O)c3ccncc3)cccc2C(=O)N([C@H](C)CO)C[C@H]1C | inactive
Cc1noc(C)c1NC(=O)N(C)C[C@H]1Oc2ncc(C#CCC(C)C)cc2C(=O)N([C@@H](C)CO)C[C@@H]1C | inactive
C[C@H]1CN([C@@H](C)CO)S(=O)(=O)c2ccc(-c3ccc(C(=O)N(C)C)cc3)cc2O[C@@H]1CN(C)C(=O)C1CCC1 | inactive
C[C@H](CO)N1C[C@H](C)[C@@H](CN(C)CC2CC2)OCCCC[C@H](C)Oc2ccc(NC(=O)Nc3ccc(C(F)(F)F)cc3)cc2C1=O | inactive
Cl.NC(COP(=O)(O)O)C(=O)O (stereo unspecified) | inactive
O=C(C[C@H]1C[C@H]2c3cc(NC(=O)Nc4ccc(C(F)(F)F)cc4)ccc3O[C@H]2[C@@H](CO)O1)NC1CCCCC1 | inactive
O=C(C[C@H]1CC[C@@H]2[C@H](COC[C@H](O)CN2S(=O)(=O)c2ccc(F)cc2)O1)N[C@@H]1CCN(Cc2ccccc2)C1 | inactive
C[C@@H]1CN([C@@H](C)CO)C(=O)c2cccc(NC(=O)Nc3ccc(F)cc3)c2O[C@H]1CN(C)C(=O)Nc1cccc2ccccc12 | inactive
C[C@H](CO)N1C[C@H](C)[C@@H](CN(C)Cc2ccc(C(F)(F)F)cc2)Oc2ccc(NC(=O)Cn3cnnn3)cc2C1=O | inactive
O=C(C[C@H]1C[C@H]2c3cc(NC(=O)Cc4ccncc4)ccc3O[C@H]2[C@@H](CO)O1)NCCc1ccccc1 | inactive
CCCC(=O)Nc1ccc2c(c1)C(=O)N(C)[C@@H]1CC[C@@H](CC(=O)NCCN3CCCCC3)O[C@@H]1CO2 | inactive
O=C(NCC[C@H]1CC[C@@H](NS(=O)(=O)c2cccc(F)c2)[C@@H](CO)O1)C1CC1 | inactive
Cc1ccc(S(=O)(=O)N(C)C[C@@H]2Oc3ccc(NC(=O)Nc4cccc5ccccc45)cc3C(=O)N([C@@H](C)CO)C[C@H]2C)cc1 | inactive
CC(C)NC(=O)N(C)C[C@@H]1Oc2ccc(NS(=O)(=O)c3cccs3)cc2C(=O)N([C@@H](C)CO)C[C@H]1C | inactive
Cc1noc(C)c1S(=O)(=O)N(C)C[C@H]1Oc2ccc(N(C)C)cc2CC(=O)N([C@@H](C)CO)C[C@@H]1C | inactive
COCOc1ccc2cc(Br)ccc2c1-c1c(OCOC)ccc2cc(Br)ccc12 | active
C[C@H](CO)N1C[C@H](C)[C@H](CN(C)C(=O)Nc2ccc(C(F)(F)F)cc2)Oc2c(NC(=O)C3CCCCC3)cccc2C1=O | active
Cc1noc(C)c1S(=O)(=O)N(C)C[C@H]1Oc2ccc(NS(C)(=O)=O)cc2CC(=O)N([C@H](C)CO)C[C@@H]1C | inactive

Reference: the antibiotic and cytotoxicity screens of Wong et al. (2023)
